The structures appear in SMILES notation. *1 amine or outer side, *2 acyl side, *3 side chain or, on linkers, in order; H or OH if unused. Where a SMILES comes first, the peptide text is derived from it. Bridges are numbered along the chain shown (N, C = ends). [ ]: non-standard residue; d: D form. The star is where a group is joined. ξ: configuration not given here. X2 = O=C(C(N[*:1])c1ccc(OC2OC(CO)C(O)C(O)C2OC2OC(CO)C(O)C(O)C2O)cc1)[*:2]; Octa(2Z,4E)dienoyl(7-Me) = CC(C)C/C=C/C=C\C(=O)*; ξPhg(3-Cl-4-OH) = NC(C(=O)O)c1ccc(O)c(Cl)c1; X1 = NC(=O)C(O[*:3])C(N[*:1])C(=O)[*:2]; Hpg = N[CH](C(=O)O)c1ccc(O)cc1; Orn = NCCC[CH](N)C(=O)O

This assay concerns the target 2N4R Tau (Homo sapiens, UniProt P10636). Nature of the assay: Seeded Tau aggregation assay (ThT fluorescence, TEM of the fibrils formed). Particulars: mole ratios of 1:3, 1:5, and 1:10 vs Reference.

Consider `CC(C)C/C=C/C=C\C(=O)NC(CC(N)=O)C(=O)NC1C(=O)NC(c2ccc(O)cc2)C(=O)NC(CCCN)C(=O)NC(C(C)O)C(=O)NC(c2ccc(O)cc2)C(=O)NC(c2ccc(O)cc2)C(=O)NC(C(C)O)C(=O)NC(Cc2ccccc2)C(=O)NC(CCCN)C(=O)NC(c2ccc(OC3OC(CO)C(O)C(O)C3OC3OC(CO)C(O)C(O)C3O)cc2)C(=O)NC(C(C)O)C(=O)NC(c2ccc(O)cc2)C(=O)NCC(=O)NC(CC(C)C)C(=O)NC(C)C(=O)NC(c2ccc(O)c(Cl)c2)C(=O)OC1C(N)=O` (stereo not shown) [Ramoplanin A2] ({Octa(2Z,4E)dienoyl(7-Me)}-N[X1][Hpg][Orn]T[Hpg][Hpg]TF[Orn][X2]T[Hpg]GLA[ξPhg(3-Cl-4-OH)]; ester 2-C; configuration not given here), for which the “span of the fluorescence curves” value is reported as “significantly lower span values”.

Values taken from US20260199426A1, “CYCLIC LIPOPEPTIDE ANTIBIOTIC COMPOUNDS FOR USE IN THE TREATMENT OF PROTEIN AGGREGATION DISEASE” (DEUTSCHES ZENTRUM FÜR NEURODEGENERATIVE ERKRANKUNGEN E. V., priority 2022, published 2026).
